Results as given in PubChem BioAssay AID588855 (National Center for Advancing Translational Sciences (NCATS), 2011).
Hit rate of the full screen: of about 410,000 compounds, about 5,000 (1.2%) were called active. Inconclusive means that the source gave no clear call. Such entries were picked first, then a sample of the others. Calls come from the whole dose curve; as a rule, active = well fitted inhibition curve with a large enough effect; inconclusive = small, poorly fitted or top-dose-only effect; inactive = no such curve, though single readings can be large or run the other way. Potencies of inconclusive entries are doubtful fits and often do not repeat.
Potency is the fitted concentration of half-maximal effect; tags give direction and shape of the fitted curve.

Test: qHTS for Inhibitors of TGF-b; note: nearly all actives have a fitted effect of over 65% in size
Details: HepG2 CAGA-GFP TGF-b/SMAD3 reporter, GFP fluorescence, 18 h, TGF-beta stimulated, 500 pg/mL final; series mostly up to 46.1 µM
Summary of the method: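 Using HEPG2 CAGA-GFP reporter cells at 1000 cells/well, we pinned test compounds, stimulated with recombinant TGF-beta (500 pg/mL final) and measured total well GFP after 18 h.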
For `O=S1(=O)CCOC[C@H](Cc2ccccc2)N1Cc1cccc(Cl)c1`, the Potency was inconclusive: 7.08 µM [inhibitor, partial curve].
In the case of `Cn1c(NC(=O)c2ccccc2NC(=O)C(C)(C)C)nc2ccccc21`, the Potency is reported as inconclusive: 15.8 µM [inhibitor, single point].
With `O=C(CSc1cn(CC(=O)N2CCCC2)c2ccccc12)Nc1cc(C(F)(F)F)ccc1Cl` the Potency was inconclusive: 12.6 µM [inhibitor, partial curve, poor fit].
With `COc1cc(C)ccc1OCCOCCOc1cccc2ccc(C)nc12` the Potency was inconclusive: 22.4 µM [inhibitor, single point].
For `COc1cc(NC(=O)c2ccc(NC(=O)N3CCSc4ncccc43)cc2)cc(OC)c1`, the Potency was “inactive”.
In the case of `COc1ccc(CCNCC2C(Oc3ccc(Cl)cc3)C(=O)N2c2ccccc2C)cc1OC` (stereo not drawn), the Potency is reported as inconclusive: 25.1 µM [inhibitor, single point].
For `Cc1ccc2nc(-c3ccc(NC(=S)NC(=O)C(C)C)cc3)sc2c1`, the Potency was “inactive”.
With `Cc1cccc(CCNC(=O)C2CCCN(S(=O)(=O)c3ccc4c(c3)oc(=O)n4C)C2)c1` (stereo not drawn) the Potency was inconclusive: 20 µM [inhibitor, single point].
With `O=C(Nc1ccccc1F)c1ccc(C(=O)c2ccccc2)cc1` the Potency was “inactive”.
With `COc1cccc(CNC(=O)c2ccc(NC(=O)N3CC(C)Sc4ccccc43)cc2)c1` (stereo not drawn) the Potency was inconclusive: 11.2 µM [inhibitor, single point].
In the case of `CCCCCCN1C[C@@H](n2cc(-c3ccc(F)cc3)nn2)[C@H](O)C[C@@H]1c1ccccc1`, the Potency is reported as inconclusive: 35.5 µM [inhibitor, single point].
With `Cc1ccccc1Nc1c(-c2ccncc2)nc2ccc(Cl)cn12` the Potency was active: 15.8 µM.
With `COc1ccc2c(c1)nc(SCC(=O)c1cccs1)n2C` the Potency was inconclusive: 3.16 µM [inhibitor, partial curve, poor fit].
For `O=C(c1ccc(CS(=O)c2ccccc2Cl)o1)N1CCN(c2cccc(Cl)c2)CC1` (stereo not drawn), the Potency was inconclusive: 22.4 µM [inhibitor, single point].
In the case of `COc1ccccc1N1CCN(C(=O)COc2ccc(Cl)cc2Br)CC1`, the Potency is reported as inconclusive: 35.5 µM [inhibitor, single point].
In the case of `O=C(Nc1ccc(Cl)cc1)Nc1ccc(N2CCCC2)c(S(=O)(=O)Nc2ccccc2Cl)c1`, the Potency is reported as inconclusive: 5.62 µM [inhibitor, full curve, poor fit].
For `CC(CNC(=O)CCCn1c(=O)c2cccn2c2cccnc21)c1ccccc1` (stereo not drawn), the Potency was inconclusive: 4.47 µM [inhibitor, partial curve].
For `Cc1ccc(NNC(=O)c2ccno2)c(C)c1`, the Potency was “inactive”.
With `O=C(COc1cccc2ccccc12)N1CCN(c2ccccc2)CC1` the Potency was inconclusive: 17.8 µM [inhibitor, single point].
For `CC(C)c1nc(N2CCN(C(=O)c3ccccc3)CC2)c(C#N)c2c1COC(C)(C)C2`, the Potency was “inactive”.
With `COc1ccccc1N1CCN(C(=O)c2cc3ccc4ccc(C)[nH]c4c3n2)CC1` the Potency was inconclusive: 35.5 µM [inhibitor, single point].
In the case of `CC(CNC(=O)c1cc(COc2ccc3ncccc3c2)on1)c1ccccc1` (stereo not drawn), the Potency is reported as inconclusive: 35.5 µM [inhibitor, single point].
In the case of `Cc1cc(NC(=O)Nc2cccc([N+](=O)[O-])c2)no1`, the Potency is reported as “inactive”.
For `CCC(Sc1nc2nccnc2c(=O)n1Cc1ccc(C)cc1)C(=O)NC1CCCCC1` (stereo not drawn), the Potency was “inactive”.
With `CCOc1ccc(S(=O)(=O)Nc2ccc(-c3ccc(OC)nn3)cc2)cc1` the Potency was inconclusive: 35.5 µM [inhibitor, single point].
In the case of `CN(CC(=O)Nc1ccc(Cl)cc1)CC(=O)Nc1cc(Cl)ccc1C#N`, the Potency is reported as inconclusive: 11.2 µM [inhibitor, partial curve, poor fit].
With `CN(O)/C=c1/ccc2c(n1)C(=O)C=CC=2` the Potency was inconclusive: 35.5 µM [inhibitor, single point].
With `Cc1c2cnn(-c3ccccc3)c(=O)c2c(C)n1CC(=O)NCc1ccccc1` the Potency was inconclusive: 0.891 µM [inhibitor, partial curve, poor fit].
In the case of `CCOc1ccc(NC(=O)c2ccccc2NS(C)(=O)=O)cc1`, the Potency is reported as inconclusive: 6.31 µM [inhibitor, single point].
For `Cc1c(C(=O)NCc2ccccc2C(F)(F)F)sc(=O)n1Cc1ccc(S(=O)(=O)N(C)C)cc1`, the Potency was inconclusive: 22.4 µM [inhibitor, single point].
In the case of `Cc1cc(C)cc(NC(=O)CCc2c(C)nc3c4cccnc4nn3c2C)c1`, the Potency is reported as inconclusive: 1.58 µM [inhibitor, partial curve, poor fit].
With `Cc1sc2nc(CSc3ccccc3)nc(N3CCOCC3)c2c1C` the Potency was “inactive”.
With `CCOC(=O)c1sc(NC(=S)NC(=O)c2ccccc2)c(C(=O)OCC)c1C` the Potency was inconclusive: 35.5 µM [inhibitor, partial curve, poor fit].
For `CCCCCCCCCNC(=O)[C@H](NC(=O)COc1ccccc1)[C@@H]1NC(C(=O)OC)C(C)(C)S1` (stereo partly drawn), the Potency was active: 11.2 µM.
In the case of `C=CC(=O)Nc1ccc(Nc2nc(NC3CCC(N(C)C)CC3)nc3c2ncn3C(C)C)cc1` (stereo not drawn), the Potency is reported as active: 0.631 µM.
With `COc1cc(OC)cc(N(C(=O)CNC(=O)c2cccs2)C(C(=O)NCC2CCCO2)c2ccccc2)c1` (stereo not drawn) the Potency was inconclusive: 5.62 µM [inhibitor, full curve].
With `CCOc1ccc(N=Cc2c(C)[nH]n(-c3nc4ccccc4[nH]3)c2=O)cc1` the Potency was “inactive”.
For `Oc1ccccc1OCc1nc2ccccc2s1`, the Potency was “inactive”.
In the case of `C/C(=N\NC(=O)c1ccccc1-n1cccc1)c1ccccn1`, the Potency is reported as active: 14.1 µM.
With `CN(CC(=O)Nc1ccccc1-c1ccccc1)Cc1ccccc1Cl` the Potency was inconclusive: 25.1 µM [inhibitor, single point].
For `O=C(CSc1ccc2nnc(-c3ccccn3)n2n1)Nc1ccccc1C(F)(F)F`, the Potency was “inactive”.
With `O=C(NCC(c1ccccc1)c1ccccc1)c1nn(-c2ccccc2F)nc1CO` the Potency was inconclusive: 0.112 µM [inhibitor, full curve, poor fit].
In the case of `Oc1c(CN2CCN(c3ccccn3)CC2)cc(Cl)c2cccnc12`, the Potency is reported as inconclusive: 3.98 µM [inhibitor, full curve, poor fit].
